Results from PubChem BioAssay AID651820 (National Center for Advancing Translational Sciences (NCATS), 2012).
About 12,000 (3.5%) of roughly 340,000 compounds were called active. This list was built around the results that the source calls inconclusive (neither active nor inactive); the mix of calls is not that of the screen. Calls come from the whole dose curve; as a rule, active = well fitted inhibition curve with a large enough effect; inconclusive = small, poorly fitted or top-dose-only effect, or another doubt; inactive = no such curve, though single readings can be large or run the other way. Potencies of inconclusive entries are left out as doubtful fits.

Assay: qHTS Assay for Inhibitors of Hepatitis C Virus (HCV)
Details: Huh7.5.1 HCVcc-Cre (HCVcc is cell-culture hepatitis C virus) infection, luciferase reporter, 44 h; activity change, negative = inhibition: at 41.8 µM (top of the series) unless noted
How it was run: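 Whole-lifecycle infectious HCVcc-Cre system; cells 1,000/well, compound then virus (~0.5 moi) added 4 h after plating, 44 h culture. Luciferase read 15 sec following 15 min substrate incubation, room temp.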
% is set by controls: 0 for no effect and ±100 for the full control effect; potency is the fitted concentration of half-maximal effect; tags give direction and shape of the fitted curve.

Row | SMILES | Potency | activity change, negative = inhibition
1 | CC(C)c1cc(C(=O)N/N=C/C=C/c2ccccc2)n[nH]1 | inconclusive [inhibitor, partial curve] | –
2 | Cc1cccc(NC(=O)Nc2ccc(Cl)c(Cl)c2)n1 | – | inactive: -25.2%
3 | CCOc1ccc(-c2n[nH]c(=S)c3ccccc23)cc1 | – | inactive: -12.8%
4 | NC(=O)CN1C(=O)C(O)(CC(=O)/C=C\c2ccc3c(c2)OCO3)c2ccccc21 (centres undefined) | inconclusive [inhibitor, single point] | –
5 | Cc1cccc2cc(CN(Cc3nnnn3C3CCCCC3)C3CCCC3)c3nnnn3c12 | inconclusive [inhibitor, single point] | –
6 | CCCn1nc2cc(C(=O)NCC34CC5CC(CC(C5)C3)C4)ccc2c1OCC | inconclusive [inhibitor, partial curve] | –
7 | CC(C)OCCCNC(=O)c1cc2c(=O)n(C)c3ccccc3c2n1C | inconclusive [inhibitor, partial curve] | –
8 | CC1CCC(NC(=O)c2cccc(S(=O)(=O)N3CCN(c4ccc(F)cc4)CC3)c2)CC1 (centres undefined) | inconclusive [inhibitor, full curve] | –
9 | Cc1ccc(NS(=O)(=O)c2cc([N+](=O)[O-])ccc2NNC(=S)Nc2cc(C)ccc2C)c(C)c1 | active: 11.2 µM | –
10 | CCOC(=O)C1(CCOc2ccccc2)CCN(Cc2cccc3c2OCO3)CC1 | active: 10 µM | –
11 | O=S(=O)(Nc1ccc(-c2cn3ccsc3n2)cc1)c1ccc2c(c1)OCCO2 | – | inactive: -12.7%
12 | COc1ccc(-c2cc(C(=O)NCCCN3CCOCC3)no2)cc1 | – | inactive: -3.36%
13 | CN(CC(=O)NC(=O)NCc1ccccc1)Cc1ccc(Cl)c(Cl)c1 | – | inactive: 5.61%
14 | CCOc1ccc(CN2CCC(n3nccc3NC(=O)CCCc3ccccc3)CC2)cc1 | inconclusive [inhibitor, single point] | –
15 | C/C(=N/OC(=O)C1CC1)c1cc(-c2ccc(Cl)cc2)no1 | inconclusive [inhibitor, single point] | –
16 | CCOc1ccccc1NC(=O)Nc1ccc2c(c1)OCO2 | inconclusive [inhibitor, single point] | –
17 | CC(C)[C@H](NC(N)=O)C(=O)NCCc1ccc(Cl)cc1Cl | inconclusive [inhibitor, single point] | –
18 | CCCCCn1nc(C(=O)N2CCc3ccccc32)c2ccccc2c1=O | inconclusive [inhibitor, single point] | –
19 | Cc1nn(C)cc1/C=C/C(=O)c1cccs1 | inconclusive [inhibitor, single point] | –
20 | C#CCOCCOCCOCCNc1nc(N2CCN(C(=O)CCCCCCCCCCNC(=O)[C@@H](CCSC)n3cc(CCO)nn3)CC2)nc(N2CCN(C(=O)CCCCCCCCCCNC(=O)[C@H]([C@@H](C)CC)n3cc(CCCCN=C(N)N)nn3)CC2)n1 | inconclusive [inhibitor, partial curve] | –
21 | O=C(NCc1ccccc1CN1CCCC1)c1cccc(S(=O)(=O)N2CCCC2)c1 | inconclusive [inhibitor, full curve, poor fit] | –
22 | CCn1c(CNC(=O)c2ccco2)nnc1SCC(=O)c1ccccc1 | – | inactive: 22.7%
23 | CCOc1ccc(S(=O)(=O)Nc2cc(S(=O)(=O)N(CC)CC)ccc2N2CCCC2)cc1 | inconclusive [inhibitor, single point] | –

Row | SMILES | Potency | activity change, negative = inhibition
24 | COc1ccc(NC(=O)N(C2CCCCC2)C2CCN(C(C)C)CC2)c(OC)c1 | active: 3.55 µM | –
25 | CC(C)C[C@H](NC(=O)[C@@H]1Cc2c([nH]c3ccccc23)C2c3ccccc3C(=O)N21)C(=O)N1CCC[C@@H]1C(=O)O (some centres undefined) | – | inactive: -60.9%
26 | CC(=O)c1cccc(NC(=S)NCCc2ccc(F)cc2)c1 | – | inactive: 9.73%
27 | COCCn1c(SCC(=O)c2c(-c3ccccc3)n(C)c3ccccc23)nnc1-c1ccncc1 | inconclusive [inhibitor, partial curve] | –
28 | CCOC(=O)c1sc(NC(=O)CCN2CCC(C)CC2)c(C(=O)OCC)c1C | inconclusive [inhibitor, single point] | –
29 | COc1ccc(OC2CCN(S(=O)(=O)c3ccc(F)cc3)CC2)cc1 | – | inactive: 17.5%
30 | COCC(=O)NCCNc1nc2ccc(C)cc2cc1C | inconclusive [inhibitor, partial curve, poor fit] | –
31 | CC(=O)N(C)c1ccc(N=Nc2c(C)[nH]n(C(N)=S)c2=O)cc1 | – | inactive: 11.8%
32 | Cc1ccc(N(CC(=O)Nc2cc(Cl)ccc2Oc2ccccc2)S(C)(=O)=O)c(C)c1 | active: 11.2 µM | –
33 | O=c1[nH]c(=O)n(CCC2=CCCCC2)c(O)c1/C=N/Nc1cccc2ccccc12 | – | inactive: -7.87%
34 | COc1ccc(C(CNC(=O)Cc2ccc(-c3ccccc3)cc2)N(C)C)cc1 (centres undefined) | inconclusive [inhibitor, single point] | –
35 | Cc1c(/C=N/NC(=O)c2ccccc2O)c2ccccn2c1C(=O)c1ccc(F)cc1 | inconclusive [inhibitor, partial curve, poor fit] | –
36 | O=C(CN(Cc1ccco1)C(=O)c1ccc(N2CCCC2=O)cc1)Nc1ccccc1C(F)(F)F | inconclusive [inhibitor, single point] | –
37 | CCOc1ccc2[nH]c(S(=O)(=O)CC)nc2c1Cl | – | inactive: 21.3%
38 | CC(=O)O[C@@]12CO[C@@H]1C[C@H](O)[C@@]1(C)C(=O)[C@H](O)C3=C(C)[C@@H](O)C[C@@](O)([C@@H](OC(=O)c4ccccc4)C12)C3(C)C (some centres undefined) | inconclusive [inhibitor, single point] | –
39 | Cc1c(/C=N/NC(=O)c2cc(C(C)(C)C)[nH]n2)c2ccccc2n1C | – | inactive: 11.1%
40 | COc1cccc(NC(=O)COC(=O)c2c(NC(C)=O)sc(C)c2C)c1 | inconclusive [inhibitor, single point] | –
41 | CCCCCN(C(=O)NC(=O)Nc1ccccc1C)S(C)(=O)=O | inconclusive [inhibitor, single point] | –
42 | CCOc1ccc(NC(=O)CN2CCN(C3c4ccccc4-c4ccccc43)CC2)cc1 | inconclusive [inhibitor, full curve] | –
43 | CCCCC(C(=O)NC(C)(C)C)N(Cc1ccccc1Cl)C(=O)c1snc(C(N)=O)c1N (centres undefined) | – | inactive: -18.8%
44 | O=C(CN1CCN(C(c2ccccc2)c2ccccc2)CC1)N1N=CCC1c1ccccc1 (centres undefined) | – | inconclusive: -50.3% [inhibitor]
45 | COc1ccc(S(=O)(=O)NC(C)C(=O)N2CCCC2)cc1C (centres undefined) | – | inactive: 7.46%
46 | Cc1onc(C(=O)N2CCOCC2)c1[N+](=O)[O-] | – | inactive: 14.7%

Row | SMILES | Potency | activity change, negative = inhibition
47 | COc1cc(CC(=O)NCC2COc3ccccc3O2)cc(OC)c1OC (centres undefined) | – | inactive: -9.55%
48 | Cc1ccc(Oc2cc(NC(=O)CCCn3nc([N+](=O)[O-])c(Cl)c3C)cc([N+](=O)[O-])c2)cc1 | inconclusive [inhibitor, single point] | –
49 | Cc1sc2ncnc(N3CCC(C(=O)Nc4ccc(Cl)c(Cl)c4)CC3)c2c1C | inconclusive [inhibitor, partial curve] | –
50 | COc1ccc(CCNc2oc(COc3ccccc3F)nc2C#N)cc1OC | inconclusive [inhibitor, partial curve] | –
51 | Cc1ccc(S(=O)(=O)N(c2nc(NC(C)C)nc(NC(C)C)n2)n2cnnc2)cc1 | – | inactive: -4.52%
52 | COc1ccc(CCNC(=O)CSc2nc3[nH]ncc3c(=O)n2-c2ccc(C)c(Cl)c2)cc1OC | – | inactive: 0.198%
53 | CN(C)C(CNC(=S)Nc1ccc(F)cc1)c1cccnc1 (centres undefined) | – | inactive: 9.6%
54 | CC(C)C[C@@H](CN1CCCC1CN1C(=S)NC[C@@H]1Cc1ccc(O)cc1)N1C[C@H](Cc2ccc(O)cc2)N(CC2CCCCCC2)C1=S (some centres undefined) | inconclusive [inhibitor, single point] | –
55 | O=C1/C(=N\S(=O)(=O)c2cccs2)C([n+]2ccccc2)=C([O-])c2ccccc21 | active: 6.31 µM | –
56 | Cc1ccc(CNC(=O)C2(C)Oc3ccccc3NC2=O)cc1 (centres undefined) | – | inactive: 4.87%
57 | ClCCn1cnc2c(SCc3ccccc3Cl)ncnc21 | – | inactive: -15.7%
58 | CCCCNS(=O)(=O)NC(=O)C1=C(N2CCCC2)COC1=O | – | inactive: -1.32%
59 | COc1ccccc1Nc1nc(-c2ccccc2O)nc2ccccc12 | active: 3.98 µM | –
60 | COc1ccc(Cl)cc1NC(=O)CN(C)C(=O)c1cc2c(s1)CCCC2 | inconclusive [inhibitor, partial curve] | –
61 | COc1ccc2nc(NC(=O)c3cc(S(=O)(=O)N4CCOCC4)ccc3C)sc2c1 | active: 22.4 µM | –
62 | Cc1ccc(C)c(S(=O)(=O)N2CCCCC2CCNC(=O)C(=O)NC2CCCC2)c1 (centres undefined) | inconclusive [inhibitor, single point] | –
63 | CC(=O)Nc1ccc(S(=O)(=O)NCCS(=O)(=O)N2CCN(c3ccccc3F)CC2)cc1 | inconclusive [inhibitor, single point] | –
64 | CCN1CCN(c2ncnc3scc(-c4ccc(OC)cc4)c23)CC1 | – | inactive: -16%
65 | COc1cc(N)c(Cl)cc1C(=O)OCC(=O)N1CCc2ccccc21 | inconclusive [inhibitor, single point] | –
66 | CC1CCCN(C(=O)CCNC(=O)Cn2cnc3ccccc3c2=O)C1 (centres undefined) | – | inactive: 7.18%
67 | O=C1[C@H]2[C@@H](C(=O)N1c1cc(Cl)cc(Cl)c1)[C@]1(C(=O)Nc3ccccc31)N1CCC[C@@H]21 | inconclusive [inhibitor, single point] | –
68 | CCOC(=O)N1CCC(NC(=O)c2cc(C(=O)NCc3cccc(Cl)c3)ccc2CO)CC1 | inconclusive [inhibitor, single point] | –
69 | Cc1cc(C)cc(-c2nnc(SCC(=O)c3ccc4c(c3)OCCO4)o2)c1 | inconclusive [inhibitor, partial curve] | –
